Measurements published in the supplement of paper PMC12217912.
This is one part of the list. The full chains were built here from the parent and the listed change. Values near 0.05 are background.

B1: TEV protease; numbered along this chain (parent)
chain: MGESLFKGPRDYNPISSSICHLTNESDGHTTSLYGIGFGPFIITNKHLFRRNNGTLVVQSLHGVFKVKDTTTLQQHLVDGRDMIIIRMPKDFPPFPQKLKFREPQREERICLVTTNFQTKSMSSMVSDTSCTFPSGDGIFWKHWIQTKDGQCGSPLVSTRDGFIVGIHSASNFTNTNNYFTSVPKNFMELLTNQEAQQWVSGWRLNADSVLWGGHKVFMVKPEEPFQPVKEATQL

Variants of: B1
Test: raw area under fraction-flipped curve 0-4 h after induction (AUC4h, not background-subtracted), DNA-recorder readout of cleavage of the substrate (dimensionless); higher = more cleavage of the substrate by the protease variant
Conditions: temperature: 34 °C; time window: 0-4 h after rhamnose induction
Procedure: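 In vivo DNA recorder in E. coli TOP10(DE3) ΔrhaA at 34 °C. Each TEVp single-site mutant (parent TEVp 0) is paired with a single-site variant of the 7-mer TEVs (canonical ENLYFQ|S). The substrate sits between flexible linkers in a Bxb1-sfGFP-TEVs-SsrA fusion, so cleavage stabilises Bxb1 and speeds flipping of a recombination array, read by NGS. The value is the raw area under the fraction-flipped curve over 0-4 h after rhamnose induction (AUC4h), with ≥20 reads per time point. It is not background-subtracted; inactive controls average about 0.047.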
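Note: Bxb1 expression induced with 0.2% (w/v) L-rhamnose at OD600 near 0.5, cultures sampled hourly, flipped fraction per protease–substrate barcode pair counted by paired-end Illumina sequencing.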

Variant	area with substrate ENLYFAS	area with substrate ENLYFCS	area with substrate ENLYFES	area with substrate ENLYFFS	area with substrate ENLYFHS	area with substrate ENLYFIS	area with substrate ENLYFLS	area with substrate ENLYFMS	area with substrate ENLYFNS	area with substrate ENLYFPS	area with substrate ENLYFSS	area with substrate ENLYFTS	area with substrate ENLYFVS	area with substrate ENLYFYS	area with substrate ENLYFDS	area with substrate ENLYFKS	area with substrate ENLYFRS	area with substrate ENLYFWS	area with substrate ENLYFGS
D27N	0.0596	0.0765	0.0585	0.0545	0.0588	0.0607	0.0539	0.0637	0.0489	0.0612	0.0714	0.0581	0.065	0.0473					
T71K	0.0762		0.0691	0.0687		0.0472		0.0777	0.0687		0.0596				0.0711	0.0667	0.0628		
F49W	0.0619	0.0486	0.0769	0.0652	0.0728		0.0608	0.0701	0.0568	0.0583	0.055	0.0571	0.0392	0.0563	0.0508	0.0636	0.0571	0.0477	
I15T	0.0652	0.0662	0.0562	0.0675	0.0595	0.0522	0.0574	0.0656	0.0738	0.0566	0.0353	0.0494	0.0646	0.0543	0.0631	0.0574	0.058	0.0678	0.0466
T70N	0.0698		0.0751	0.0543		0.0541		0.0655				0.0635	0.0548				0.0625	0.0494	0.0605
T70P	0.0564	0.0676	0.0599	0.0704	0.0575	0.0506	0.0681	0.105		0.0617	0.0796				0.0439	0.0661	0.0612		
T70K	0.0076		0.0499			0.0489			0.0786							0.0632	0.0519		
L22Q	0.0494	0.0506	0.048	0.0568	0.0358	0.0348	0.0387	0.0314		0.0381	0.0305	0.0475				0.044	0.0362		0.0514
Y34S	0.0632		0.0563		0.0501	0.0618			0.0684	0.0589		0.0603	0.0342		0.0302	0.078	0.0534		
Y34V	0.0488		0.051	0.0686	0.059	0.0627		0.0533	0.0545	0.0705				0.0578		0.054		0.0564	0.0735
Y34R	0.0688		0.062				0.0616	0.0521		0.0541	0.0344	0.0878				0.0345	0.0458	0.0351	
T30I	0.069	0.0554	0.0715		0.0631	0.0479		0.0616	0.0633	0.0615	0.0658	0.0433		0.062	0.064	0.0618		0.0449	
T30P	0.0555	0.0707		0.0641	0.0561			0.0625		0.0499	0.0409				0.0524	0.0665	0.0561		0.0502
T30E	0.0544	0.0506	0.0738	0.0589	0.0554	0.0535		0.0739	0.0569	0.057		0.0656	0.0612	0.0496	0.0582	0.0556		0.0653	0.0571
